Experimental data reported in PubChem BioAssay AID720709 (National Center for Advancing Translational Sciences (NCATS), 2013).
Hit rate of the full screen: of about 360,000 compounds, about 520 (0.14%) were called active. The inconclusive results got no clear call from the source; some entries with a clear call stand among them for comparison. The call rests on the fitted dose curve; in most records, active means well fitted inhibition curve with a large enough effect; inconclusive means small, poorly fitted or top-dose-only effect; inactive means no such curve, though single readings can be large or run the other way. Potencies of inconclusive entries are left out as doubtful fits.

Molecular target: Rap guanine nucleotide exchange factor 3 (Homo sapiens) (UniProt O95398)
Assay: qHTS for Antagonist of cAMP-regulated guanine nucleotide exchange factor 3 (EPAC1): primary screen; further: nearly all actives have a fitted effect of over 50% in size;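 on activity change, negative = inhibition: plate controls were vehicle for no effect and positive control for full effect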
Conditions: EPAC1 GEF assay, Rap1b-BODIPY-GDP exchange fluorescence; activity change, negative = inhibition: at 115 µM (top of the series)
Potency means the concentration at half of the fitted maximal effect; tags describe the fitted curve by direction and shape.

Chain of UniProt O95398 (O95398 whole entry, looked up): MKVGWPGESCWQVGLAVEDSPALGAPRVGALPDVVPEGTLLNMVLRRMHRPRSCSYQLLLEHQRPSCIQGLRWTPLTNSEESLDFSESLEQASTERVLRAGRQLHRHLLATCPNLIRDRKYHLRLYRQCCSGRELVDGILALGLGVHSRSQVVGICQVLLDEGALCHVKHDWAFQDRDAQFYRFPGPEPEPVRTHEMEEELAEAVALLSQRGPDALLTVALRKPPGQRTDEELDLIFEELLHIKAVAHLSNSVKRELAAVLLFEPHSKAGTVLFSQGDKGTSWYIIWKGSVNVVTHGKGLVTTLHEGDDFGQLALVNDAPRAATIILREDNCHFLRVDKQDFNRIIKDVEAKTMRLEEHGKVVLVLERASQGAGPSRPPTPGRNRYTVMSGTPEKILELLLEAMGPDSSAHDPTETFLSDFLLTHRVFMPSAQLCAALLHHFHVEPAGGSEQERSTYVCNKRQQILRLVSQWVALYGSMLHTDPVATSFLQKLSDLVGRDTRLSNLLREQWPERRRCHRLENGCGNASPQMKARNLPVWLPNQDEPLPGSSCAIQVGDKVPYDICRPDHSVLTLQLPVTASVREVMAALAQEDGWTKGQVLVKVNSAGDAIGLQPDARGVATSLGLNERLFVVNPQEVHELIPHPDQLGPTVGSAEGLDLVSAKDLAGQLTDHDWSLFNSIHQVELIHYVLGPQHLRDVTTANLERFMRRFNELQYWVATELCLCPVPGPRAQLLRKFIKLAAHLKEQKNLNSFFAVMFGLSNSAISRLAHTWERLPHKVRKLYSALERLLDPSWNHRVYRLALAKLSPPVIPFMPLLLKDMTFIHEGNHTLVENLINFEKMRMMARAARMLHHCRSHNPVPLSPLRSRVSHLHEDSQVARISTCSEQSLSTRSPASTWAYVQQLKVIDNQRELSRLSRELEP

Row | SMILES | Potency | activity change, negative = inhibition
1 | CCOC(=O)CC(NS(=O)(=O)c1ccc(NC(C)=O)cc1)c1ccc(OCC)cc1 (stereo not given) | inconclusive [inhibitor, single point] | 
2 | CC(=O)c1ccc(NC(=S)N2CCCC(C(F)(F)F)C2)cc1 (stereo not given) | inconclusive [inhibitor, single point] | 
3 | COC(=O)[C@@]12CCCCN1[C@H](c1ccc(-c3cccc(Cl)c3)c(OC)c1)[C@H]1C(=O)N(C)C(=O)[C@H]12 | inconclusive [inhibitor, full curve, poor fit] | 
4 | CC(NC(=O)c1cccs1)C(S)c1ccccc1 (stereo not given) | inconclusive [inhibitor, full curve, poor fit] | 
5 | CC(Sc1nc2ncc(Cl)cc2[nH]1)C(=O)NC1(C#N)CCCCC1 (stereo not given) | inactive | 
6 | COc1ccc(CC2(C)OC(c3ccc(C)cc3)=NN2C(C)=O)cc1 (stereo not given) | inconclusive [inhibitor, full curve, poor fit] | 
7 | Cc1ccccc1OCCNC(=O)c1ccco1 |  | inconclusive: -31.9% [inhibitor]
8 | Cc1nc(Nc2ccc(F)cc2)[nH]c(=O)c1CCC(C)C | inconclusive [inhibitor, full curve] | 
9 | CCN1CCN(Cc2ccc(NC(=O)c3cc(NC(=O)C(=O)c4c[nH]c5ccccc45)cc(OC)c3)cc2C(F)(F)F)CC1 | inconclusive [inhibitor, full curve, poor fit] | 
10 | CC1(C)N([O-])c2cc([N+](=O)[O-])ccc2[N+]1=O | active: 70.8 µM | 
11 | Cc1cc(C)c(Nc2cc(S(=O)(=O)O)c(N)c3c2C(=O)c2ccccc2C3=O)c(C)c1 | active: 50.1 µM | 
12 | Cc1ccc(C)c(NC(=O)COC(=O)CC2c3ccccc3CCN2S(=O)(=O)c2ccc(F)cc2)c1 (stereo not given) | inconclusive [inhibitor, full curve, poor fit] | 
13 | Cn1cnnc1SCC(=O)c1ccc(OC(F)F)cc1 | inconclusive [inhibitor, single point] | 
14 | Cc1ccc(NC(=S)N2CCCC2)cc1C | inconclusive [inhibitor, single point] | 
15 | COc1ccc(-n2c(C)cc(C(=O)CN3C(=O)c4ccccc4C3=O)c2C)cc1 | inactive | 
16 | O=C(N/N=C/C=C\c1ccccc1[N+](=O)[O-])c1cccs1 | inactive | 
17 | Cc1ccc(-n2c(C)cc(C(=O)COc3cccnc3[N+](=O)[O-])c2C)cc1 | inconclusive [inhibitor, single point] | 
18 | Cc1cc(C(C2C(=O)CC(C)(C)CC2=O)C2C(=O)CC(C)(C)CC2=O)cc(C)c1OC(F)F | inconclusive [inhibitor, single point] | 
19 | Cc1cc(SCC(=O)c2cccs2)n2nc(C)c(-c3ccccc3)c2n1 | inconclusive [inhibitor, full curve, poor fit] | 
20 | Cc1nc(CNS(=O)(=O)c2cc(F)ccc2F)cs1 | inactive | 
21 | COCCn1c(=NC(=O)c2cc3ccccc3oc2=O)sc2cc(S(N)(=O)=O)ccc21 | inconclusive [inhibitor, partial curve] | 
22 | NC(=S)N=Nc1c(O)cc(O)c2[nH]c(=O)ccc12 | active: 50.1 µM | 

Row | SMILES | Potency | activity change, negative = inhibition
23 | COc1ccc(/C=C/c2nc3ccccc3n2Cc2ccc(OC)c(OC)c2)cc1 | inconclusive [inhibitor, full curve, poor fit] | 
24 | CC(O)C(=O)N/N=C/c1ccccc1C(=O)O (stereo not given) | inconclusive [inhibitor, single point] | 
25 | Cc1ccc2nc(C(C)(C)C)c(Cc3ccsc3)n2c1 | inconclusive [inhibitor, partial curve] | 
26 | Cc1ccc(NC(=O)c2ccc([N+](=O)[O-])o2)c(C)c1 | inconclusive [inhibitor, partial curve, poor fit] | 
27 | COc1ccccc1N1CCN(C(=O)c2cccc(S(=O)(=O)N3c4ccccc4CC3C)c2)CC1 (stereo not given) | inconclusive [inhibitor, single point] | 
28 | Oc1ccc(N=Cc2c(O)ccc3ccccc23)cc1 | inconclusive [inhibitor, single point] | 
29 | CC(C(=O)NC1CCCCC1)N1CCN(S(=O)(=O)c2cccs2)CC1 (stereo not given) | inactive | 
30 | Cc1oc(-c2ccccc2F)nc1CSCC(=O)NC1CCC(C)CC1 (stereo not given) | inconclusive [inhibitor, partial curve, poor fit] | 
31 | CCc1nnc(SCC(=O)NC2CC2)n1CC | inconclusive [inhibitor, full curve, poor fit] | 
32 | OCC1(Cc2ccccc2Cl)CCN(C/C=C/c2ccccc2)CC1 | inactive | 
33 | O=C(N/N=C\c1cccnc1)c1cc(-c2ccccc2)nc2c(Cl)cccc12 | inconclusive [inhibitor, single point] | 
34 | O=C(O)CCNc1cc(N2CCN(C(=O)c3ccco3)CC2)c2noc3c2c1C(=O)c1ccccc1-3 | inconclusive [inhibitor, partial curve] | 
35 | Cc1cc(C(C)(C)C)cc(C)c1S(=O)(=O)N1CC(=O)Nc2ccccc21 | inconclusive [inhibitor, full curve] | 
36 | Cc1cccc(NC(=S)NNC(=O)c2csc(C(C)C)c2)c1 | inconclusive [inhibitor, full curve] | 
37 | O=C1CC(c2ccc(Cl)cc2)CC(=O)C1CS(=O)(=O)c1ccccc1 (stereo not given) | inconclusive [inhibitor, single point] | 
38 | O=[N+]([O-])c1cc(S(=O)(=O)C(F)(F)F)ccc1Sc1nc2ccccc2[nH]1 | inconclusive [inhibitor, full curve] | 
39 | COc1ccc(NC(=O)CC2C(=O)N(C)C(=S)N2Cc2ccc3c(c2)OCO3)cc1 (stereo not given) | inconclusive [inhibitor, partial curve] | 
40 | COc1ccc(OC)c(C(C)NC(=O)C23CC4CC(CC(C4)C2)C3)c1 (stereo not given) | inconclusive [inhibitor, single point] | 
41 | CCOC(=O)c1c(/N=C/c2cc(C)ccc2O)sc2c1CCC2 | inconclusive [inhibitor, partial curve] | 
42 | O=C1/C(=C/c2ccncc2)SC(=S)N1Nc1ccccc1 | inactive | 
43 | O=C(Nc1cccc(S(=O)(=O)N2CCCC2)c1)C1CCCN1C(=O)c1cccs1 (stereo not given) | inactive | 
44 | c1ccc(CSc2nc3ncccn3n2)cc1 | inactive | 

Row | SMILES | Potency | activity change, negative = inhibition
45 | CCC(CO)Nc1ccc(-c2n[nH]c(=O)c3ccccc23)cc1[N+](=O)[O-] (stereo not given) | inactive | 
46 | CCOc1cc(C(=O)N/N=C(\C)Cc2ccc(OC)cc2)cc(OCC)c1OCC | inconclusive [inhibitor, partial curve] | 
47 | CCn1c(N2CCC(Cc3ccccc3)CC2)nc2c1c(=O)[nH]c(=O)n2C | inconclusive [inhibitor, single point] | 
48 | CSc1nsc(SCC(=O)Nc2ccc(O)c(C(=O)O)c2)n1 | inconclusive [inhibitor, full curve, poor fit] | 
49 | CC(C)n1cc(/C=C/c2cc[n+](C)cc2)c2ccccc21 | inactive | 
50 | O=C(CSc1nnnn1-c1ccc(Cl)c(C(=O)O)c1)NC(c1ccccc1)c1ccccc1 | inactive | 
51 | CCCC1C2CN(C(C)C)CC=C2C(C#N)=C(N)C1(C#N)C#N (stereo not given) | inconclusive [inhibitor, full curve] | 
52 | CC(=O)Nc1ccc(S(=O)(=O)NCc2ccc3c(c2)cc(C)n3C)cc1 | inactive | 
53 | CN1CCN(c2cc(N3CCN(C(=O)c4ccco4)CC3)c3c4c(onc24)-c2ccccc2C3=O)CC1 | inconclusive [inhibitor, partial curve] | 
54 | COc1cccc(NC(=O)c2oc3ccc(S(=O)(=O)N4CCOCC4)cc3c2C)c1 | inconclusive [inhibitor, single point] | 
55 | CC(=O)c1cc(CC(=O)N2CCc3c([nH]c4ccccc34)C2c2ccccn2)cs1 (stereo not given) | inconclusive [inhibitor, single point] | 
56 | COc1ccccc1NC(=S)N(Cc1ccc(Cl)cc1)CC1CCC(C(=O)O)CC1 (stereo not given) | inconclusive [inhibitor, full curve, poor fit] | 
57 | O=C(c1[nH]ncc1[N+](=O)[O-])N1CCOCC1 | inconclusive [inhibitor, full curve, poor fit] | 
58 | O=C1CC(=O)N(C2CCCCC2)C(=O)N1c1ccccc1S(=O)(=O)Oc1ccccc1 | inconclusive [inhibitor, partial curve] | 
59 | COc1ccccc1NC(=O)C(C)OC(=O)c1cc2ccccc2[nH]1 (stereo not given) | inconclusive [inhibitor, full curve, poor fit] | 
60 | NC(=O)CC(NC(=O)Cc1cccc2ccccc12)c1ccc(N2CCC(N3CCCC3)CC2)c([N+](=O)[O-])c1 (stereo not given) | inconclusive [inhibitor, single point] | 
61 | CSC1=NSC2=NC(=O)/C(=C/c3coc4ccccc4c3=O)C(=N)N12 | inactive | 
62 | Cc1cccc(C(=O)Nc2sc3c(c2C(=O)O)CCCC3)c1 | inconclusive [inhibitor, partial curve] | 
63 | Cc1ccccc1NC(=S)NCCSc1ccc(Cl)cc1 | inconclusive [inhibitor, partial curve] | 
64 | O=C(Nc1ccc2c(c1)OCCO2)C(c1ccccc1)n1c(=O)c(-c2cc3ccccc3[nH]2)nc2ccccc21 (stereo not given) | inactive | 
65 | CN(C)C(=O)Cn1c(=O)n(S(=O)(=O)c2ccccc2)c2ccccc21 | inconclusive [inhibitor, full curve, poor fit] | 
